# Experimental data reported in the supplement of paper PMC8728848.
# The list shows a part of the results.
# B1: DBA (Dolichos biflorus) (protein)
# chain: ANIQSFSFKNFNSPSFILQGDATVSSGKLQLTKVKENGFPLRFPSGRAFYSSPIQIYDKFTGAVASWATSFTVKISAPSKASFADGIAFALVPVGSEPRRNGGYLGVFDSDVYNNSAQTVAVEFDTLSNSGWDPSMKHIGIDVNSIKSIATVSWDLANGENAEILITYNAATSLLVVSLVHPSRRTSYILSERVDITNELPEYVGVGFSATTGLSEGYIETHDVLSWSFASRLPDDSTAEPLDLARYLVRNVL
# Legend:
# Experiment in all cases: glycan array binding signal (z-score within array); higher = stronger binding
# Conditions in all cases: glycan notation: IUPAC condensed, linker removed
# [1] = target: Gal(a1-3)Gal(b1-4)[Fuc(a1-3)]GlcNAc
# Procedure, shortened: (§1)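 The Consortium for Functional Glycomics database supplied 3228 glycan arrays, of which those lacking an available protein sequence were dropped. The binding signal, a within-array Z-score, was averaged across arrays of the same protein sequence and across linkers. Negative scores can be read as non-binding.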
# [2] = target: Gal(a1-3)Gal(b1-4)[Fuc(a1-3)]GlcNAc(b1-2)Man(a1-3)[Gal(a1-3)Gal(b1-4)[Fuc(a1-3)]GlcNAc(b1-2)Man(a1-6)]Man(b1-4)GlcNAc(b1-4)GlcNAc
# Procedure, shortened: as §1
# [3] = target: Gal(a1-3)GalNAc
# Procedure, shortened: as §1
# [4] = target: Gal(a1-3)[Gal(a1-4)]Gal(b1-4)GlcNAc
# Procedure, shortened: as §1
# [5] = target: Gal(a1-4)Gal(b1-3)GlcNAc(b1-2)Man(a1-3)[Gal(a1-4)Gal(b1-3)GlcNAc(b1-2)Man(a1-6)]Man(b1-4)GlcNAc(b1-4)GlcNAc
# Procedure, shortened: as §1
# [6] = target: Gal(a1-4)Gal(b1-4)Glc
# Procedure, shortened: as §1
# [7] = target: Gal(a1-4)Gal(b1-4)GlcNAc
# Procedure, shortened: as §1
# [8] = target: Gal(a1-4)Gal(b1-4)GlcNAc(b1-2)Man(a1-3)[Gal(a1-4)Gal(b1-4)GlcNAc(b1-2)Man(a1-6)]Man(b1-4)GlcNAc(b1-4)GlcNAc
# Procedure, shortened: as §1
# [9] = target: Gal(a1-4)Gal(b1-4)GlcNAc(b1-3)Gal(b1-4)Glc
# Procedure, shortened: as §1
# [10] = target: Gal(a1-4)GlcNAc
# Procedure, shortened: as §1
# [11] = target: Gal(a1-6)Glc
# Procedure, shortened: as §1
# [12] = target: Gal(b1-2)Gal
# Procedure, shortened: as §1
# [13] = target: Gal(b1-3)Gal
# Procedure, shortened: as §1
# [14] = target: Gal(b1-3)Gal(b1-4)GlcNAc
# Procedure, shortened: as §1
# [15] = target: Gal(b1-3)GalNAc
# Procedure, shortened: as §1
# [16] = target: Gal(b1-3)GalNAc(a1-3)[Fuc(a1-2)]Gal(b1-4)Glc
# Procedure, shortened: as §1
# [17] = target: Gal(b1-3)GalNAc(a1-3)[Fuc(a1-2)]Gal(b1-4)GlcNAc
# Procedure, shortened: as §1
# [18] = target: Gal(b1-3)GalNAc(b1-3)Gal
# Procedure, shortened: as §1
# [19] = target: Gal(b1-3)GalNAc(b1-3)Gal(a1-4)Gal(b1-4)Glc
# Procedure, shortened: as §1
# [20] = target: Gal(b1-3)GalNAc(b1-4)Gal(b1-4)Glc
# Procedure, shortened: as §1
# [21] = target: Gal(b1-3)GalNAc(b1-4)[Neu5Ac(a2-3)]Gal(b1-4)Glc
# Procedure, shortened: as §1
# [22] = target: Gal(b1-3)GlcNAc
# Procedure, shortened: as §1
# [23] = target: Gal(b1-3)GlcNAc(a1-3)Gal(b1-4)GlcNAc
# Procedure, shortened: as §1
# [24] = target: Gal(b1-3)GlcNAc(a1-6)Gal(b1-4)GlcNAc
# Procedure, shortened: as §1
# [25] = target: Gal(b1-3)GlcNAc(b1-2)Man
# Procedure, shortened: as §1
# [26] = target: Gal(b1-3)GlcNAc(b1-2)Man(a1-3)[Gal(b1-3)GlcNAc(b1-2)Man(a1-6)]Man(b1-4)GlcNAc(b1-4)GlcNAc
# Procedure, shortened: as §1
# [27] = target: Gal(b1-3)GlcNAc(b1-2)Man(a1-3)[Gal(b1-3)GlcNAc(b1-2)Man(a1-6)]Man(b1-4)GlcNAc(b1-4)[Fuc(a1-6)]GlcNAc
# Procedure, shortened: as §1
# [28] = target: Gal(b1-3)GlcNAc(b1-2)Man(a1-3)[GlcNAc(b1-4)][Gal(b1-3)GlcNAc(b1-2)Man(a1-6)]Man(b1-4)GlcNAc(b1-4)GlcNAc
# Procedure, shortened: as §1
# [29] = target: Gal(b1-3)GlcNAc(b1-2)[Gal(b1-3)GlcNAc(b1-6)]Man(a1-6)[Gal(b1-3)GlcNAc(b1-2)Man(a1-3)]Man(b1-4)GlcNAc(b1-4)GlcNAc
# Procedure, shortened: as §1
# [30] = target: Gal(b1-3)GlcNAc(b1-3)Gal(b1-3)GlcNAc
# Procedure, shortened: as §1
# [31] = target: Gal(b1-3)GlcNAc(b1-3)Gal(b1-4)Glc
# Procedure, shortened: as §1
# [32] = target: Gal(b1-3)GlcNAc(b1-3)Gal(b1-4)GlcNAc
# Procedure, shortened: as §1
# [33] = target: Gal(b1-3)GlcNAc(b1-3)Gal(b1-4)GlcNAc(b1-2)Man(a1-3)[Gal(b1-3)GlcNAc(b1-3)Gal(b1-4)GlcNAc(b1-2)Man(a1-6)]Man(b1-4)GlcNAc(b1-4)GlcNAc
# Procedure, shortened: as §1
# [34] = target: Gal(b1-3)GlcNAc(b1-3)Gal(b1-4)GlcNAc(b1-2)[Gal(b1-3)GlcNAc(b1-3)Gal(b1-4)GlcNAc(b1-6)]Man(a1-6)[Gal(b1-3)GlcNAc(b1-3)Gal(b1-4)GlcNAc(b1-2)Man(a1-3)]Man(b1-4)GlcNAc(b1-4)[Fuc(a1-6)]GlcNAc
# Procedure, shortened: as §1
# [35] = target: Gal(b1-3)GlcNAc(b1-3)Gal(b1-4)GlcNAc(b1-3)Gal(b1-4)GlcNAc(b1-2)[Gal(b1-3)GlcNAc(b1-3)Gal(b1-4)GlcNAc(b1-3)Gal(b1-4)GlcNAc(b1-6)]Man(a1-6)[Gal(b1-3)GlcNAc(b1-3)Gal(b1-4)GlcNAc(b1-3)Gal(b1-4)GlcNAc(b1-2)Man(a1-3)]Man(b1-4)GlcNAc(b1-4)[Fuc(a1-6)]GlcNAc
# Procedure, shortened: as §1
# [36] = target: Gal(b1-3)GlcNAc(b1-3)Gal(b1-4)GlcNAc(b1-6)[Gal(b1-3)GlcNAc(b1-3)]Gal(b1-4)Glc
# Procedure, shortened: as §1
# [37] = target: Gal(b1-3)GlcNAc(b1-3)Gal(b1-4)[Fuc(a1-3)]GlcNAc
# Procedure, shortened: as §1
# [38] = target: Gal(b1-3)GlcNAc(b1-3)Gal(b1-4)[Fuc(a1-3)]GlcNAc(b1-6)[Gal(b1-3)GlcNAc(b1-3)]Gal(b1-4)Glc
# Procedure, shortened: as §1
binder,measurement,setting,value
B1,glycan array binding signal (z-score),[1],-0.133
same,glycan array binding signal (z-score),[2],-0.104
same,glycan array binding signal (z-score),[3],-0.103
same,glycan array binding signal (z-score),[4],-0.075
same,glycan array binding signal (z-score),[5],-0.059
same,glycan array binding signal (z-score),[6],-0.067
same,glycan array binding signal (z-score),[7],-0.115
same,glycan array binding signal (z-score),[8],-0.041
same,glycan array binding signal (z-score),[9],-0.118
same,glycan array binding signal (z-score),[10],-0.126
same,glycan array binding signal (z-score),[11],-0.132
same,glycan array binding signal (z-score),[12],-0.113
same,glycan array binding signal (z-score),[13],-0.143
same,glycan array binding signal (z-score),[14],-0.119
same,glycan array binding signal (z-score),[15],-0.108
same,glycan array binding signal (z-score),[16],-0.111
same,glycan array binding signal (z-score),[17],-0.079
same,glycan array binding signal (z-score),[18],-0.131
same,glycan array binding signal (z-score),[19],-0.115
same,glycan array binding signal (z-score),[20],-0.098
same,glycan array binding signal (z-score),[21],-0.13
same,glycan array binding signal (z-score),[22],-0.126
same,glycan array binding signal (z-score),[23],-0.178
same,glycan array binding signal (z-score),[24],-0.113
same,glycan array binding signal (z-score),[25],-0.095
same,glycan array binding signal (z-score),[26],-0.068
same,glycan array binding signal (z-score),[27],-0.073
same,glycan array binding signal (z-score),[28],-0.073
same,glycan array binding signal (z-score),[29],-0.089
same,glycan array binding signal (z-score),[30],-0.115
same,glycan array binding signal (z-score),[31],-0.135
same,glycan array binding signal (z-score),[32],-0.086
same,glycan array binding signal (z-score),[33],-0.1
same,glycan array binding signal (z-score),[34],-0.106
same,glycan array binding signal (z-score),[35],0.071
same,glycan array binding signal (z-score),[36],-0.116
same,glycan array binding signal (z-score),[37],-0.107
same,glycan array binding signal (z-score),[38],-0.1
